According to PubChem BioAssay AID1434 (Sanford-Burnham Center for Chemical Genomics, 2008):
The list shows a part of the results. These are further read-outs of the screen, such as a control signal, another cell line or another target. No call is given for them. The list favours compounds with an active or inconclusive main result.

Each molecule was assayed against Runt-related transcription factor 1 (Homo sapiens) + Core-binding factor subunit beta (Homo sapiens) (UniProt Q01196+Q13951) (assay: disruptors of Runt domain/CBFb-SMMHC interaction – biochemical, FRET, Cerulean-Runt, Venus-CBFb-SMMHC, uHTS, primary screen (AID 1434;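 further: 0% = DMSO wells and 100% = wells with excess untagged CBFb-SMMHC; inhibitors lower the FRET ratio by blocking Runt binding to CBFb-SMMHC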)). Details: Cerulean-Runt/Venus-CBFb-SMMHC FRET ratio 530/480, 1 h; retest duplicate average; at 20 µM; stronger effect = higher value.
UniProt Q01196, sequence (Q01196 whole entry, looked up, the tested form may be a part): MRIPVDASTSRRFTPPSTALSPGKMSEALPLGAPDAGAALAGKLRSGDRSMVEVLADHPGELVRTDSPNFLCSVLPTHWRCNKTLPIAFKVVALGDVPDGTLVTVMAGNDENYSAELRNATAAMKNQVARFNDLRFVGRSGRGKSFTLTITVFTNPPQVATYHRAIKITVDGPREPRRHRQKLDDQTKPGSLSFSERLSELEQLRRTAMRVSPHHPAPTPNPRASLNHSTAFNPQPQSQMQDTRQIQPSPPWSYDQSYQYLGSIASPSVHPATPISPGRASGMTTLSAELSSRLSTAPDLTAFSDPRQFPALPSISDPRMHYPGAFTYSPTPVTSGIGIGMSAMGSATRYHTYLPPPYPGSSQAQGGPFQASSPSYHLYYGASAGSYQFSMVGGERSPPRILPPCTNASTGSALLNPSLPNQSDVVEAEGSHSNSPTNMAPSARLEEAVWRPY
UniProt Q01196, sequence (Q13951 whole entry, looked up, the tested form may be a part): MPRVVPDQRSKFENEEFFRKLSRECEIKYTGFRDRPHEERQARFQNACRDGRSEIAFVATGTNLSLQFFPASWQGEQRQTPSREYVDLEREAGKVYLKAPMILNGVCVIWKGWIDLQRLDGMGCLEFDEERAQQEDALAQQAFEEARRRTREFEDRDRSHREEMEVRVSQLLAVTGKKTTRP

| SMILES | inhibition [%] |
| --- | --- |
| O=C(O)c1ccc(N/N=C/c2ccc(-c3ccccc3Cl)o2)cc1 | 98 |
| COCCCn1c(=NC(=O)c2ccc3c(c2)OCO3)c(C#N)cc2c(=O)n3cccc(C)c3nc21 | 185 |
| C=CCOC(=O)C(C#N)c1nc2ccccc2nc1N1CCN(Cc2ccccc2)CC1 (stereo unspecified) | 85.4 |
| CCN1CC=C2C(C#N)=C(N)C(C#N)(C#N)[C@H](c3cccc(OC)c3OC)[C@H]2C1 | 83.3 |
| NC(=O)c1cc2ccc(O)cc2oc1=NCc1ccccc1 | 71.5 |
| CCN(CC)c1ccc(/C=C(\C#N)C(=O)NCc2ccco2)cc1 | 71.5 |
| COC(=O)Cc1c(C)c2cc(Cl)c(OC(=O)c3ccco3)cc2oc1=O | 161 |
| COC(=O)C1=CN(Cc2ccc(OC)cc2)C=C(C(=O)OC)C1c1ccsc1 | 139 |
| CN1Cc2c(N3CCOCC3)nc(SCc3ccccc3)c(C#N)c2CC1(C)C | 72.9 |
| O=C(N/N=C/c1c(O)n(-c2ccc(Cl)cn2)c(=O)c2ccccc12)c1ccncc1 | 71.5 |
| O=C(O)c1cc(-c2ccc(/C=N/Nc3ccc(Cl)cc3)o2)ccc1Cl | 55.9 |
| CC(=O)Nc1sc2c(c1-c1nc3ccccc3s1)CCN(C(C)C)C2 | 70.6 |
| Cc1cc(C(=O)CN2C(=O)c3cccc(N)c3C2=O)c(C)n1Cc1cccs1 | 72.9 |
| CCOC(=O)C1=C(CSc2nc3c(cc2C#N)CN(C)CC3)OC(N)=C(C#N)C1c1ccncc1 (stereo unspecified) | 67.2 |
| N#Cc1c2c(c(NCCOCCO)n3c1nc1ccccc13)CCCC2 | 68.4 |
| CCN1CCc2nc(NC(=O)c3ccc4c(c3)OCCO4)sc2C1 | 112 |
| CCOC(=O)c1cc2c(=O)n3ccccc3nc2n(CCOC)c1=NC(=O)c1c(-c2c(F)cccc2Cl)noc1C | 76.7 |
| O=C(NCc1ccco1)c1ccc2nc3sc4c(c3c(=O)n2c1)CCCC4 | 72.6 |
| N#Cc1cc2c(=O)n3ccccc3nc2n(Cc2ccco2)c1=NC(=O)c1ccco1 | 71.5 |
| Cn1c(=O)c2nc3ccccc3nc2n(C)c1=O | 74.2 |
| O=c1oc2ccc3ccccc3c2c2c1SC(C(F)(F)F)C2 (stereo unspecified) | 61.1 |
| CC(C)c1[nH]nc2c1C1(CCN(Cc3ccccc3)CC1)C(C#N)=C(N)O2 | 83.4 |

| SMILES | inhibition [%] |
| --- | --- |
| CCOCCCn1c(=NC(=O)c2ccco2)c(C(=O)OCC)cc2c(=O)n3cccc(C)c3nc21 | 70.6 |
| O=C1C=CC(=O)N1N(c1ccccc1)c1ccccc1 | 67.2 |
| Cc1ccc(C(=O)NCCn2c(N)c(C#N)c3nc4ccccc4nc32)cc1 | 71.6 |
| O=c1ccc2cc(O)c(O)cc2o1 | 71.5 |
| CCOC(=O)c1cc2c(=O)n3ccccc3nc2n(Cc2ccco2)c1=NC(=O)c1ccc(OC)cc1 | 152 |
| CCOC(=O)c1c2ccc(OCC(=O)NN)cc2n2ccccc12 | 70.6 |
| N#CC1(C#N)CC(C=O)=C(N)C1(C#N)CC(=O)c1ccc(F)cc1 (stereo unspecified) | 64.8 |
| CCCCn1c(NS(=O)(=O)c2ccccc2)c(S(=O)(=O)c2ccc(C)cc2)c2nc3ccccc3nc21 | 55.8 |
| CCOC(=O)/C(C#N)=C1/C=C(C)c2ccccc2N1 | 98.2 |
| Cc1c(Cc2ccccc2)c(NCCN(C)C)n2c(nc3ccccc32)c1C#N | 63.6 |
| Cn1c(=O)nc2n(Cc3ccccc3)c3cccc(Cl)c3cc-2c1=O | 71.5 |
| CCOC(=O)/C(=C/c1ccc(N2CCC(c3ccccc3)=N2)cc1)C(C)=O | 71.5 |
| COc1ccc(N2C3=C(C(=O)CC(C)(C)C3)C(c3ccccc3OC)C3=C2CC(C)(C)CC3=O)cc1 | 70.6 |
| CCOC(=O)C1=CN(C)C=C(C(=O)OCC)C1c1ccsc1 | 125 |
| Clc1ccc(-c2nc(N3CCCCC3)nc3ccccc23)cc1 | 61.9 |
| CC(=O)c1ccc(/C=C/c2nc3ccccc3n2C)o1 | 70.6 |
| Cc1cc(=O)oc2c3c4c(cc12)OCCN4CCC3 | 79.4 |
| COC(=O)C(C)n1nnc2sc(-c3ccccc3)cc2c1=O (stereo unspecified) | 143 |
| COc1ccc(C2C3=C(CC(C)(C)CC3=O)Nc3c2c(=O)n(C)c(=O)n3C)cc1OC (stereo unspecified) | 118 |
| CC(=O)Oc1cc2oc(=O)cc(C)c2cc1Cl | 121 |
| CCN(CC)c1ccc2cc(-c3nnc(-c4ccncc4)o3)c(=O)oc2c1 | 71.5 |
| CC(=O)N1c2ccccc2C2(O)N=C(C)SC12 (stereo unspecified) | 52.2 |

| SMILES | inhibition [%] |
| --- | --- |
| N=c1c(C(=O)NCc2ccc(F)cc2)cc2c(=O)n3ccccc3nc2n1Cc1cccnc1 | 72.9 |
| CCOCCCNC(=S)N1CCCN(c2nc3cc(C)ccc3cc2C#N)CC1 | 95.5 |
| N#Cc1c(NC(=O)c2ccc(Br)o2)n(-c2ccccc2)c2nc3ccccc3nc12 | 70.6 |
| CCOc1ccccc1N=c1oc2cc(O)ccc2cc1C(=O)NCC1CCCO1 (stereo unspecified) | 72.9 |
| CCCCn1c(=O)nc2n(-c3ccccc3)c3ccccc3cc-2c1=O | 72.9 |
| CCSc1sccc1C1C(C#N)=C(N)N(c2cccnc2)C2=C1C(=O)CCC2 (stereo unspecified) | 74.9 |
| CC(C)c1cc(N2CCN(C(=O)c3ccco3)CC2)n2c(nc3ccccc32)c1C#N | 53.5 |
| Cc1cc2n(n1)C(c1ccc(N(C)C)cc1)Nc1ccccc1-2 (stereo unspecified) | 53.1 |
| O=C(CN1CCN(c2ccc(O)cc2)CC1)NC(c1ccccc1)c1ccccc1 | 5.1 |
| CCCCn1c(=NC(=O)c2ccco2)c(C(=O)OCC)cc2c(=O)n3cccc(C)c3nc21 | 70.6 |
| COc1ccc2nc(N3CCC(O)CC3)c(C#N)cc2c1 | 81.9 |
| Cc1cccn2c(=O)c3cc(C(=O)NCc4ccco4)c(=N)n(C(C)C)c3nc12 | 72.9 |
| CCc1c(C)c(C#N)c2[nH]c3ccccc3n2c1=S | 157 |
| N#Cc1c(NC(=O)c2ccccc2Cl)n(Cc2ccccc2)c2nc3ccccc3nc12 | 118 |
| CCOc1ccccc1C1C(C#N)=C(N)Oc2cc(N)ccc21 (stereo unspecified) | 94.8 |
| Cn1c(=O)c(C=Nc2ccccc2)c(O)c2ccccc21 | -16.1 |
| Oc1ccc(N=Cc2ccc(-c3cccs3)s2)cc1 | 120 |
| COc1ccc(C(=O)/C=C2\Sc3ccccc3N2C)cc1 | 88.5 |
| Cc1ccc2sc(NC(=O)CSc3nc(C)cc(C)c3C#N)nc2c1 | 74.8 |
| CCCCCCc1cc2cc(-c3nnc(-c4cc(OC)c(OC)c(OC)c4)o3)c(=O)oc2cc1O | 100 |
| Cc1c2c(n3c(nc4ccccc43)c1C#N)N(CCCN(C)C)CC2 | 70.6 |
| Cc1cccn2c(=O)c3cc(C(=O)NC4CCCC4)c(=N)n(C4CCCC4)c3nc12 | 71.5 |
